Measured values reported in PubChem BioAssay AID1645887 (National Center for Advancing Translational Sciences (NCATS), 2021).
Where “and” joins values, the source holds several entries; their conditions need not be identical. Equal entries are not always repeated. In all, about 16,000 compounds went through this assay and about 40 (0.2%) were called active. Not shown: some 1% with an inconclusive outcome. Calls follow the shape of the dose curve; as a rule, active = well fitted activation curve with a large enough effect; inconclusive = small, poorly fitted or top-dose-only effect, or another doubt; inactive = no such curve, though single readings can be large or run the other way. The list shows a part of the results.

molecular target: Rap guanine nucleotide exchange factor 4 (Homo sapiens) (UniProt Q8WZA2); assay: Validation qHTS for agonist of cAMP-regulated guanine nucleotide exchange factor 4 (EPAC2); settings: EPAC2 Rap1B BODIPY-GDP exchange, fluorescence; activation: active compounds read high;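 also: exchange makes BODIPY-GDP fluorescence drop when released from Rap1B; series mostly up to about 150 µM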
UniProt Q8WZA2, sequence (Q8WZA2 whole entry, looked up): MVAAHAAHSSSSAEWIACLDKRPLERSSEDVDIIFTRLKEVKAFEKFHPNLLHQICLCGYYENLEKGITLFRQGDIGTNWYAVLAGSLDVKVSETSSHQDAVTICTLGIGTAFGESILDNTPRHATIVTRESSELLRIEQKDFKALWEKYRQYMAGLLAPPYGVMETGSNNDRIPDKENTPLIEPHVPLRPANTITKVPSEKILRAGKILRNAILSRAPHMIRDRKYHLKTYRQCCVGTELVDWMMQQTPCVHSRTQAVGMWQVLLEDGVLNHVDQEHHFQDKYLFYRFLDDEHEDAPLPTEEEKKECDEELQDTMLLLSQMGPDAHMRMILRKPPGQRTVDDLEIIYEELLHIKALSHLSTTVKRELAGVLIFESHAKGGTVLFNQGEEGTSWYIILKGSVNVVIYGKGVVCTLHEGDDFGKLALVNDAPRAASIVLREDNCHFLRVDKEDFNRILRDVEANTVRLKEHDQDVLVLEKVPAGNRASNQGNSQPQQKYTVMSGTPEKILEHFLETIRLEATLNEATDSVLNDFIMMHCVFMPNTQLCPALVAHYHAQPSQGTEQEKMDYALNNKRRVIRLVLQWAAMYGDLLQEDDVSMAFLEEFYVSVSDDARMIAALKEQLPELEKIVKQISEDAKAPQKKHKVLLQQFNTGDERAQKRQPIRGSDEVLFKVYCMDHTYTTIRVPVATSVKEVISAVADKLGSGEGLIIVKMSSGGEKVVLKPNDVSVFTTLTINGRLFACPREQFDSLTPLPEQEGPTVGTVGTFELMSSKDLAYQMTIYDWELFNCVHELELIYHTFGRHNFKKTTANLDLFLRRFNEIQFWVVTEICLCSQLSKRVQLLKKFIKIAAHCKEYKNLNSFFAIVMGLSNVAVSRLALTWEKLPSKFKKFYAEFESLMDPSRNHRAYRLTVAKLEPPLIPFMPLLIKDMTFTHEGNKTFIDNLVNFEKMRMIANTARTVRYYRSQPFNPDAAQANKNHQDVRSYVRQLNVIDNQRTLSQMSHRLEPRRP
Outline: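 Fluorescent exchange assay: 100 nM EPAC2 with 250 nM RAP1B-BODIPY-GDP and 50 uM GDP; compound added, 5 min at room temperature, then read (ex 480/em 540 nm) every 5 min for 30 min. Normalized to 6.5 mM cAMP agonist control.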
% is scaled to controls: 0 for no effect and ±100 for the full control effect.

activation, inactive:
N[C@H](CCCP(=O)(O)O)C(=O)O -12.2% and -10.3%
O=c1c(-c2ccc(O)cc2)coc2c(C3OC(CO)C(O)C(O)C3O)c(O)ccc12 (configuration not stated) -11.6%
O=S(=O)(O)c1cc(N=C=S)ccc1/C=C/c1ccc(N=C=S)cc1S(=O)(=O)O -13.8%
COc1ccc(CN2[C@@H](CC(C)=O)c3ccc(/C=C/C(C)=O)cc3S2(=O)=O)cc1 -20.2%
CN(C)c1ccc(-c2nc(Nc3ccncc3)c3ccccc3n2)cc1 -5.29%
CCNc1ncc2nc(-c3cccc(C#N)c3)c(=O)n(C)c2n1 1.94%
COc1ccc(-n2c(=O)c(-c3cc(F)cc(F)c3)nc3cnc(N(C)C)nc32)cc1 -8.8%
COc1cc(C(=O)OCCCN2CCCN(CCCOC(=O)c3cc(OC)c(OC)c(OC)c3)CC2)cc(OC)c1OC -2.18% and -19.1% and -37.4%
COC(=O)C1=C(C)NC(C)=C([N+](=O)[O-])C1c1ccccc1C(F)(F)F (configuration not stated) -19% and -22.6% and -30.4%
CC(C)c1c(C(=O)N(C)Cc2cccc3ncccc23)cnn1-c1nccc(-c2ccco2)n1 -26.4%
C[C@@H]1CN(Cc2ccc3c(c2)CN(C(=O)c2ccc(Oc4ccccc4)o2)CCO3)C[C@H](C)O1 -7.46%
O=C(O)C[C@H]1c2ccc(C(F)(F)F)cc2S(=O)(=O)N1Cc1ccccc1 -15.6%
Cc1ccc(C(C)(C)c2ccc(C)cc2)cc1 4.24%
COc1ccc(Oc2ncc3nc(-c4ccccc4)c(=O)n(Cc4cccs4)c3n2)cc1 3.04%
CCC1CN(CCNC(=O)c2cscn2)Cc2cc(OC)ccc2O1 (configuration not stated) -0.879%
CC[N+](C)(CC)CCOC(=O)C(O)(c1ccccc1)C1CCCCC1 (configuration not stated) -7.12%
C(=Nc1cnc2ccccc2c1)c1ccc2ccccc2n1 -19.1%
CC1(C)CC(C(=O)N2CCOc3ccc(CN4CCN(Cc5ccccn5)CC4)cc3C2)CCO1 (configuration not stated) -5.25%
CC(C)(CNC(=O)c1cnn(-c2nccc(-c3ccccc3F)n2)c1C1CC1)N1CCOCC1 -17.8%
O=C(C[n+]1ccc2ccccc2c1)c1ccc(F)cc1 -12.8%
COc1ccc2c(c1)CCC1C2CC[C@@]2(C)C1CC[C@@H]2NCCCCCCN1C(=O)CCC1=O (some centres not stated) -25.4%
Nc1ccc(/C=C/c2ccc3ncccc3c2)cc1 -14.6%
CC(=O)[C@]1(O)CCC2C3CC(C)C4=CC(=O)C=CC4(C)[C@@]3(F)C(O)C[C@]21C (some centres not stated) 16.4%
CS(=O)(=O)N1CCC2(CC1)CN(c1ccc(-c3ccccc3)cc1)C2 -13%
COC(=O)C1CCCCN1Cc1ccc2c(c1)CN(C(=O)c1ccc(C)s1)CCO2 (configuration not stated) 2.57%
O=C(c1ccco1)N1CCC2(CCN(Cc3ccncc3)CC2)CC1 -5.46%
OCCN1CCN(CC/C=C2/c3ccccc3Sc3ccc(C(F)(F)F)cc32)CC1 -14.9% and -34%
CCNc1ncc2ncc(=O)n(Cc3cccc(OC)c3)c2n1 3.85%
COc1c(-c2coc3cc4c(cc3c2=O)CC(O)C(C)(C)O4)ccc2c1C=CC(C)(C)O2 (configuration not stated) -14%
C[C@@H](O)[C@H]1C(=O)N2C(C(=O)O)=C([C@H]3CCCO3)S[C@H]12 0.331%
COc1cccc(Nc2ncc3ncc(=O)n(C4CC4)c3n2)c1 -1.21%
NC(N)=NS(=O)(=O)c1ccc(N)cc1 -7.73% and -12%
COc1ccccc1-c1cncnc1NCc1cccc(C)c1 -14%
O=C(c1cccc(F)c1)N1CCC2(CCN(Cc3nccs3)CC2)CC1 -18.3%
Cc1cn[nH]c1 9.24% and -20.9%
COc1ccc(CN2CCCC(Cn3cc(C(=O)N4CCCC4)nn3)C2)c(O)c1 (configuration not stated) -14.3%
Cc1cnc(SCC2CCCO2)nc1C1CCCN(Cc2nc(-c3ccccc3)cs2)C1 (configuration not stated) 2.73%
O=C(c1cnccn1)N1CCC[C@@]2(CCN(c3ccccc3)C2)C1 1.28%
O=C(c1cccc(F)c1)N1CCC2(CC1)CN(c1ccccn1)C2 2.61%
O=C[C@H](O)[C@@H](O)[C@H](O)[C@H](O)CO -8.88%
CC1(C)OC2CC3C4CCC5=CC(=O)C=C[C@@]5(C)[C@]4(F)C(O)C[C@@]3(C)[C@]2(C(=O)CO)O1 (some centres not stated) 5.25%
COc1ccc(-n2c(=O)c(-c3cc(F)cc(F)c3)nc3cnc(N4CCOCC4)nc32)cc1 13.1%
OC(Cn1cncn1)(Cn1cncn1)c1ccc(F)cc1F -29.1%
NC(=O)[C@@H]1CCCN1C(=O)c1cc(NC(=O)c2ccccc2)cc2ncn(C3CCCC3)c12 1.72%
FC(F)(F)c1ccccc1-c1nccc(N2CCNCC2)n1 -3%
CCCN1CCN(C(=O)c2cnn(-c3ncc4c(n3)-c3ccccc3CCC4)c2COC)CC1 -6.81%
CN1C(CC(=O)c2ccccc2)CCCC1CC(O)c1ccccc1 (configuration not stated) 15.3%
Cc1cccc(CNc2ncncc2-c2ccccc2CN(C)C)c1 -6.15%
O=c1c(-c2ccccc2)nc2cncnc2n1Cc1ccccc1Cl -21%
COc1ccc(OC)c(/C=C/c2ccnc3ccccc23)c1 -12.1%
CC[N+](C)(C)c1cccc(O)c1 6.99% and -10.7% and -45.6%
COc1cc(OC)c2nc(-c3cc4c(c(OC)c3)OCCN(C(=O)C(C)c3n[nH]c(=O)c5ccccc35)C4)cc(C)c2c1 (configuration not stated) -3.45%
COc1ccccc1CCn1c(=O)c(-c2cccc(Cl)c2)nc2cncnc21 -18.5%
CC(=O)N1CCC2(CCCN(c3ccncc3)C2)CC1 3.77%
CN(C)Cc1ccccc1-c1cncnc1NCc1cccnc1 -0.38%
N[C@@H](C(=O)O)[C@@H](CC(=O)O)c1ccc(Cl)cc1 6.37%
COc1ccc2c(c1)O[C@@H]1c3ccc(OC)cc3OCC21 (some centres not stated) 1.61%
CC(=O)[C@@]1(O)CC[C@H]2[C@@H]3C=C(Cl)C4=CC(=O)[C@@H]5C[C@@H]5[C@]4(C)[C@H]3CC[C@@]21C -9.31%
CO[C@@H]1[C@@H](O[C@@H]2O[C@H](C)[C@@H](O[C@H]3C[C@@](C)(O)[C@@H](OC(=O)CC(C)C)[C@H](C)O3)[C@H](N(C)C)[C@H]2O)[C@@H](CC=O)C[C@@H](C)[C@@H](O)/C=C/C=C/C[C@@H](C)OC(=O)C[C@H]1O 8.54% and 1.24%
C[C@@H](NCCCc1cccc(C(F)(F)F)c1)c1cccc2ccccc12 -0.068%
CC(C)c1c(C(=O)NCc2cccnc2)cnn1-c1nccc(-c2ccccc2F)n1 2.49%
CN(Cc1ccco1)c1ccnc(-c2ccccc2C(F)(F)F)n1 -0.112%
COc1cc(=O)n2c(c1C(=O)NCc1ccco1)CCN(Cc1cccc(Cl)c1)CC2 -4.44%
Oc1cc2c(cc1O)[C@H]1c3ccc(O)c(O)c3OC[C@@]1(O)C2 -7.82%
C=CC(N)CCC(=O)O (configuration not stated) -10.3% and -12.5% and -39.1%
CCCCCCCCCCCCCCCC(=O)OC/C=C(C)/C=C/C=C(C)/C=C/C1=C(C)CCCC1(C)C -35.1% and -27%
NS(=O)(=O)c1cc(C2(O)NC(=O)c3ccccc32)ccc1Cl (configuration not stated) -18% and -7.81%
CC(C)N(CCO)Cc1nc(N2CCOCC2)c2cc(Cl)ccc2n1 -1.5%
COc1ccc(-c2nc3cnc(Nc4cccc(OC)c4)nc3n(C)c2=O)cc1 2.93%
COS(C)(=O)=O -4.11%
Cc1cc(C)nc(S[C@H]2C[C@@H](C(=O)N3CCN(c4ccccc4F)CC3)N(Cc3ccccc3F)C2)n1 3.12%
O=C(c1ccncc1)N1CCC2(CCCN(C(c3ccccc3)c3ccccc3)C2)CC1 -12.9%
COc1ccccc1CNc1ccnc(-c2ccc3c(c2)OCO3)n1 -0.987%
COc1ccc(Oc2ncc3ncc(=O)n(CCC#N)c3n2)cc1 -7.69%
COc1cc(=O)n2c(c1C(=O)N(C)Cc1nonc1C)CCN(CC1CC=CCC1)CC2 (configuration not stated) -6.28%
Cc1ccc(C(=O)Nc2cccc(-c3nc(CNC(=O)c4ccc(F)cc4Cl)c(C)o3)c2)s1 3.57%
Cc1cc(=O)c2c(O)c3c(O)cc(=O)c4c3c3c(cc(O)c1c23)C(C)(C)C=4O -27.1% and 6.87%
COCCn1c(=O)c(-c2cc(F)cc(F)c2)nc2cncnc21 -12.1%
O=c1oc2cc(O)ccc2cc1-c1ccc2c(c1)OCCO2 -17.1%
CCN[C@H]1CN(CCCOC)S(=O)(=O)c2sc(S(N)(=O)=O)cc21 -21.4%
Cc1ncc(C[n+]2csc(CCO)c2C)c(N)n1 -10.5%
CC(C)c1c(C(=O)Nc2ccccc2)c(-c2ccccc2)c(-c2ccc(F)cc2)n1CC[C@@H](O)C[C@@H](O)CC(=O)O -32.2%
